Measured values reported in the supplement of paper PMC4967469.
IC50 is the fitted dose that halves viability relative to control wells, and lower means more sensitive; a fit beyond the top or the lowest dose is shown as a bound at that dose. AUC, from the same fit, is the share of area under the viability curve across the 256-fold dose range; the more sensitive the line, the further below 1. For part of these data: The top dose, if marked as inferred, was calculated from the reported fits.

Columns and labels:
Assay in all cases: Viability of human cancer cell lines after 72 h of drug (GDSC screen)
[1] = compound: C=CC(=O)Nc1ccc(C(=O)c2sc(Nc3ccc(N4CCN(C)CC4)cc3OC)nc2N)cc1 [XMD15-27]; settings: top dose 10.24 µM; top dose inferred
Method: (§1)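 Human cancer cell lines in 384-well plates, medium with 10% serum, drug for 72 h over a 256-fold dose range (nine 2-fold or five 4-fold steps up to the top dose). Adherent lines were fixed and stained with the nucleic acid dye Syto60, suspension lines read with resazurin; signal relative to control wells, capped at 0 and 100%. One two-parameter sigmoid per drug and line, fitted in a mixed model over all curves with the slope shared within a line.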

[2] = compound: CO[C@H]1C[C@@H]2CC[C@@H](C)[C@@](O)(O2)C(=O)C(=O)N2CCCC[C@H]2C(=O)O[C@H]([C@H](C)C[C@@H]2CC[C@@H](OC(=O)C(C)(CO)CO)[C@H](OC)C2)CC(=O)[C@H](C)/C=C(\C)[C@@H](O)[C@@H](OC)C(=O)[C@H](C)C[C@H](C)/C=C/C=C/C=C/1C [Temsirolimus]; settings: top dose 0.2 µM
Method: as §1

[3] = compound: CC(=O)O[C@@H]1[C@@H](OC(C)=O)[C@@H](O)[C@H](Oc2c(-c3ccc(O)cc3)oc3cc(O)cc(O)c3c2=O)O[C@H]1C [SL 0101-1]; settings: top dose 10 µM; top dose inferred
Method: as §1

| Cell Line | AUC [1] | IC50 [1] [µM] | AUC [2] | IC50 [2] [µM] | AUC [3] | IC50 [3] [µM] |
| --- | --- | --- | --- | --- | --- | --- |
| JHH-7 (liver, adherent) | 0.988 | > 10.2 | 0.869 | 0.164 | 0.984 | > 10 |
| REH (B-cell leukaemia, suspension) | 0.907 | > 10.2 | 0.855 | 0.149 | 0.985 | > 10 |
| MPP-89 (mesothelioma, adherent) | 0.982 | > 10.2 | 0.674 | 0.0444 | 0.976 | > 10 |
| HuH-7 (liver, adherent) | 0.985 | > 10.2 | 0.493 | 0.0119 | 0.987 | > 10 |
| NCI-H838 (lung adenocarcinoma, adherent) | 0.987 | > 10.2 | 0.594 | 0.0228 | 0.987 | > 10 |
| COLO-668 (small cell lung carcinoma, adherent) | 0.989 | > 10.2 | 0.982 | > 0.2 | 0.983 | > 10 |
| Capan-2 (pancreas, adherent) | 0.982 | > 10.2 | 0.982 | > 0.2 | 0.965 | > 10 |
| JHH-2 (liver, adherent) | 0.964 | > 10.2 | 0.699 | 0.0477 | 0.962 | > 10 |
| HARA (lung squamous cell carcinoma, adherent) | 0.968 | > 10.2 | 0.731 | 0.0645 | 0.979 | > 10 |
| JHH-4 (liver, adherent) | 0.987 | > 10.2 | 0.883 | > 0.2 | 0.984 | > 10 |
| SCC-25 (head and neck, adherent) | 0.975 | > 10.2 | 0.826 | 0.143 | 0.982 | > 10 |
| HCC-56 (large intestine, adherent) | 0.975 | > 10.2 | 0.98 | > 0.2 | 0.987 | > 10 |
| VMRC-RCZ (kidney, adherent) | 0.975 | > 10.2 | 0.777 | 0.0943 | 0.981 | > 10 |
| A101D (melanoma, adherent) | 0.981 | > 10.2 | 0.655 | 0.0373 | 0.896 | > 10 |
| KYSE-50 (oesophagus, adherent) | 0.985 | > 10.2 | 0.986 | > 0.2 | 0.986 | > 10 |
| BL-41 (Burkitt lymphoma, suspension) | 0.927 | 9.81 | 0.479 | 0.0111 | 0.992 | > 10 |
| DJM-1 (skin, adherent) | 0.989 | > 10.2 | 0.961 | > 0.2 | 0.983 | > 10 |
| NB12 (neuroblastoma, adherent) | 0.873 | > 10.2 | 0.907 | > 0.2 | 0.979 | > 10 |

| Cell Line | AUC [1] | IC50 [1] [µM] | AUC [2] | IC50 [2] [µM] | AUC [3] | IC50 [3] [µM] |
| --- | --- | --- | --- | --- | --- | --- |
| GOTO (neuroblastoma, adherent) | 0.983 | > 10.2 | 0.922 | > 0.2 | 0.969 | > 10 |
| NCI-H226 (lung squamous cell carcinoma, adherent) | 0.987 | > 10.2 | 0.943 | > 0.2 | 0.987 | > 10 |
| NCI-H3122 (lung adenocarcinoma, adherent) | 0.952 | > 10.2 | 0.847 | 0.153 | 0.982 | > 10 |
| NB1 (neuroblastoma, semi-adherent) | 0.911 | > 10.2 | 0.863 | > 0.2 | 0.984 | > 10 |
| P32-ISH (Burkitt lymphoma, suspension) | 0.973 | > 10.2 | 0.934 | 0.197 | 0.993 | > 10 |
| HN (head and neck, adherent) | 0.983 | > 10.2 | 0.786 | 0.0804 | 0.942 | > 10 |
| BC-1 (B-cell lymphoma, suspension) | 0.991 | > 10.2 | 0.951 | > 0.2 | 0.983 | > 10 |
| AM-38 (glioma, semi-adherent) | 0.984 | > 10.2 | 0.808 | 0.106 | 0.939 | > 10 |
| H513 (mesothelioma, semi-adherent) | 0.985 | > 10.2 | 0.872 | > 0.2 | 0.984 | > 10 |
| L-1236 (Hodgkin lymphoma, suspension) | 0.992 | > 10.2 | 0.797 | 0.0777 | 0.989 | > 10 |
| NCI-H1869 (lung squamous cell carcinoma, adherent) | 0.983 | > 10.2 | 0.803 | 0.114 | 0.982 | > 10 |
| OPM-2 (myeloma, suspension) | 0.983 | > 10.2 | 0.949 | > 0.2 | 0.993 | > 10 |
| RO82-W-1 (thyroid, adherent) | 0.983 | > 10.2 | 0.777 | 0.104 | 0.961 | > 10 |
| DMS-79 (small cell lung carcinoma, suspension) | 0.983 | > 10.2 | 0.961 | > 0.2 | 0.985 | > 10 |
| Ca9-22 (head and neck, adherent) | 0.983 | > 10.2 | 0.737 | 0.0559 | 0.977 | > 10 |
| 697 (lymphoblastic leukaemia, suspension) | 0.919 | > 10.2 | 0.472 | 0.0107 | 0.982 | > 10 |
| CGTH-W-1 (thyroid, adherent) | 0.974 | > 10.2 | 0.332 | 0.00428 | 0.981 | > 10 |
| DND-41 (T-cell leukaemia, suspension) | 0.944 | > 10.2 | 0.903 | > 0.2 | 0.979 | > 10 |
